{"source": "ChEMBL document CHEMBL4888484", "about": "“Replenishing the malaria drug discovery pipeline: Screening and hit evaluation of the MMV Hit Generation Library 1 (HGL1) against asexual blood stage Plasmodium falciparum ,using a nano luciferase reporter read-out” (2022)", "note": "The campaign covered roughly 150,000 compounds. About 540 (0.36%) showed an effect of 50% or more. Some of the results follow."}
{"tested_on": "Plasmodium falciparum", "assay": "Primary screen in NF54 nanoGlo assay, in single point, at 2uM, 72h; a lower Z score goes with more inhibition", "format": "functional, Erythrocyte", "conditions": "timepoint 72 hour", "units": {"% Inhibition": "%"}}
{"smiles": "CC(C)(C)n1ncc2c1NC(=O)C[C@@H]2c1ccc2c(c1)OCO2", "% Inhibition": -4, "Z score": 0.51}
{"smiles": "Cc1nc(CC2CC2)sc1C(=O)N1CCCc2cc(F)ccc21", "% Inhibition": -2, "Z score": 0.25}
{"smiles": "CC(C)Cc1nc2cc(NS(=O)(=O)N(C)C)cc(C(=O)NCC(C)(C)N3CCOCC3)c2n1C", "% Inhibition": 0, "Z score": -0.05}
{"smiles": "CC(C)CCNC(N)=NC[C@H](O)c1ccccc1F", "% Inhibition": 1, "Z score": -0.13}
{"smiles": "CCC(NC(=O)Cn1ccnc1C)[C@H]1C[C@H](O)C1", "note": "(some centres not stated)", "% Inhibition": -6, "Z score": 0.64}
{"smiles": "COC(=O)[C@@H]1CS(=O)(=O)CCN1C(=O)OC(C)(C)C", "% Inhibition": -7, "Z score": 0.94}
{"smiles": "O=C(NCCc1nnc2ccccn12)c1ccc(C#Cc2ccccc2)cc1", "% Inhibition": -19, "Z score": 3.79}
{"smiles": "Cc1ccc(C)c(Cn2c(C)c(CNC3CCCCCC3)c(C(=O)O)c2C)c1", "% Inhibition": -6, "Z score": 0.76}
{"smiles": "CC(NC(=O)NC1CCCOC1)c1ccc(OC(F)(F)F)cc1", "note": "(configuration not stated)", "% Inhibition": -2, "Z score": 0.37}
{"smiles": "CNC(N)=NCC(C)(C)c1ccc(Cl)cc1", "% Inhibition": 5, "Z score": -0.55}
{"smiles": "COc1cnc(NC(=O)CC2(C)CCCCC2)s1", "% Inhibition": -12, "Z score": 1.34}
{"smiles": "Cc1nc(C)n(C[C@H](O)c2ccccc2Cl)n1", "% Inhibition": 3, "Z score": -0.49}
{"smiles": "Cc1cnc(-n2ncc(C(=O)N3CCN(CCO)CC3)c2C2CC2)nc1-c1cccs1", "% Inhibition": -7, "Z score": 1.15}
{"smiles": "Cc1nn(-c2ccccc2)c(C)c1-c1ccnc(N(C)Cc2ccccn2)n1", "% Inhibition": -9, "Z score": 1.62}
{"smiles": "Cc1ccc([C@H](C)NC(=O)C2CCN(c3cc(-c4cccc(C)c4)ncn3)CC2)cc1", "% Inhibition": -3, "Z score": 0.38}
{"smiles": "Cc1ccccc1C(=O)N1[C@H](C(=O)N2CCCC2)COC12CCN(C(=O)c1ccc(F)cc1)CC2", "% Inhibition": -3, "Z score": 0.44}
{"smiles": "OCCN(Cc1cnn(Cc2ccccc2)c1)c1ncc(F)cn1", "% Inhibition": 4, "Z score": -0.4}
{"smiles": "C[C@@H](CNC(=O)C1(C)CCOCC1)Oc1ccc(Cl)cc1", "% Inhibition": -8, "Z score": 0.88}
{"smiles": "Cc1ccc(N2CCCN(Cc3c(F)cccc3F)C2=O)c(NS(=O)(=O)c2cccc(Cl)c2)c1", "% Inhibition": 1, "Z score": -0.09}
{"smiles": "FC(F)(F)Cn1ncnc1Cc1n[nH]c2ccccc12", "% Inhibition": -2, "Z score": 0.42}
{"smiles": "CC1CC1c1nnc(C2(c3ccc(Cl)cc3)CCOCC2)o1", "note": "(configuration not stated)", "% Inhibition": -9, "Z score": 1.36}
{"smiles": "COc1ncccc1C(=O)Nc1cc(C(N)=O)ccc1NCc1ccccc1", "% Inhibition": -8, "Z score": 0.79}
{"smiles": "Cn1nncc1S(=O)(=O)NC(=O)C(C)(C)Oc1ccc(C(F)(F)F)cc1", "% Inhibition": -1, "Z score": 0.22}
{"smiles": "Cc1cccnc1CN(Cc1ccccc1)C(=O)CCC1CCN(C)CC1", "% Inhibition": 2, "Z score": -0.31}
{"smiles": "CCCc1occc1C(=O)N1CCCC2(CCCCO2)C1C#N", "note": "(configuration not stated)", "% Inhibition": 3, "Z score": -0.25}
{"smiles": "COc1ccc2[nH]cc(CCNC(=O)c3cc4n(n3)CCCN(Cc3ccc(F)cc3)C4=O)c2c1", "% Inhibition": -13, "Z score": 1.23}
{"smiles": "Cc1nn(C)c(C)c1S(=O)(=O)N1CCC(N2CCN(c3ncc(C(F)(F)F)cc3Cl)CC2)CC1", "% Inhibition": -11, "Z score": 1.47}
{"smiles": "COc1ccc(-c2ccc(-n3cccn3)cc2)c(C(=O)O)c1", "% Inhibition": 0, "Z score": -0.05}
{"smiles": "COc1ccccc1OC1(C(=O)O)CCN(Cc2cc(C(C)(C)C)[nH]n2)CC1", "% Inhibition": -14, "Z score": 1.27}
{"smiles": "Cc1cc(-c2ccc(S(=O)(=O)N3CCOCC3)s2)n[nH]1", "% Inhibition": 31, "Z score": -0.66}
{"smiles": "COc1cc(NCCn2nnc3ccccc32)ncn1", "% Inhibition": -12, "Z score": 2.29}
{"smiles": "Cc1cc(CCNC(=O)NC(C)(C)C)on1", "% Inhibition": -1, "Z score": 0.08}
{"smiles": "CCC1OCCCC1C(=O)Nc1nc(C)nn1-c1ccccc1", "note": "(configuration not stated)", "% Inhibition": -7, "Z score": 0.89}
{"smiles": "Cc1nn(C(F)F)cc1-c1cccc(C(=O)NC[C@@H](CO)Cc2ccco2)c1", "% Inhibition": 1, "Z score": -0.11}
{"smiles": "CCc1c(C)sc(NC(=O)c2scnc2C)c1C#N", "% Inhibition": -20, "Z score": 2.47}
{"smiles": "CCOCCCN1CCC(NC(=O)c2cccc(N(C)C)c2)C(C)C1", "note": "(configuration not stated)", "% Inhibition": -15, "Z score": 1.36}
{"smiles": "COc1ccc([C@H]2C[C@@H]2C(=O)N2CCC[C@H](C(=O)NC(C)C)C2)cc1", "% Inhibition": 0, "Z score": -0.02}
{"smiles": "Cc1nn(C)c(Cl)c1CN(C)C[C@H]1CC(=O)N(C2CCCC2)C1", "% Inhibition": 0, "Z score": -0.01}
{"smiles": "Cc1cc(O[C@H]2CCN(S(=O)(=O)Cc3ccccc3)C2)nc(C)n1", "% Inhibition": -2, "Z score": 0.34}
{"smiles": "FC(F)COCCOc1cccn2ccnc12", "% Inhibition": -3, "Z score": 0.36}
{"smiles": "CC(C)c1cc(CN(C)CCCc2cccnc2)no1", "% Inhibition": -16, "Z score": 3.08}
{"smiles": "CN(CCNc1nc(-c2ccccc2)no1)Cc1ccccc1", "% Inhibition": -26, "Z score": 2.27}
{"smiles": "COCCc1nsc(N2CCN(c3ccc(N)nc3)CC2)n1", "% Inhibition": -2, "Z score": 0.32}
{"smiles": "O=S(=O)(Nc1nnc2ccccn12)c1cc(Br)ccc1Cl", "% Inhibition": -9, "Z score": 1.45}
{"smiles": "COc1cc(CNCCN2CCCC[C@@H]2CO)ccc1F", "% Inhibition": 1, "Z score": -0.1}
{"smiles": "O=C(c1cccc2nccnc12)N1CCC[C@@]2(CCCO2)CC1", "% Inhibition": -8, "Z score": 1.37}
{"smiles": "CCN(CCNC(=O)Cc1ccc2nc(NC(C)=O)sc2c1)c1ccccc1", "% Inhibition": -3, "Z score": 0.25}
{"smiles": "COCc1nc(C)cc(NCCc2c[nH]c3cc(F)c(Cl)cc23)n1", "% Inhibition": -3, "Z score": 0.5}
{"smiles": "COc1cc(-c2nnc(NC(=O)C3CCCCC3)o2)cc(OC)c1OC", "% Inhibition": 14, "Z score": -1.92}
{"smiles": "c1csc(-c2nc(Cn3cnc4c3CCNC43CCOCC3)co2)c1", "% Inhibition": -7, "Z score": 1.2}
{"smiles": "OC1(c2nc(COCc3ccccc3)no2)CCCCC1", "% Inhibition": -13, "Z score": 1.69}
{"smiles": "CN1C(=O)COC12CCN(C(=O)Cc1ccccc1N1CCCC1=O)CC2", "% Inhibition": 1, "Z score": -0.15}
{"smiles": "CNC(=O)CCN(C)c1nc(-c2c[nH]c3ccccc23)nc2c1CNC2", "% Inhibition": -5, "Z score": 0.85}
{"smiles": "CNC(=O)CCS(=O)(=O)CCCC(=O)Nc1c(C)cc(C)cc1C", "% Inhibition": 36, "Z score": -4.64}
{"smiles": "O=C(c1ccccc1)n1c(=O)n(C(=O)c2ccccc2)c2ccccc21", "% Inhibition": 33, "Z score": -0.79}
{"smiles": "c1ccc2c(N[C@@H]3C[C@H]4CC[C@@H]3O4)ccnc2c1", "% Inhibition": 3, "Z score": -0.51}
{"smiles": "Cc1ccc([C@H](CC(F)(F)F)NCc2c[nH]c3nccnc23)cc1", "% Inhibition": -2, "Z score": 0.45}
{"smiles": "CC(C)c1cc(NC(=O)Nc2ccn(CCC#N)n2)[nH]n1", "% Inhibition": -2, "Z score": 0.34}
{"smiles": "C[C@H]1Cc2cc(S(=O)(=O)NC(=O)c3cncc(F)c3)cc(Cl)c2O1", "% Inhibition": -4, "Z score": 0.79}
{"smiles": "O=C(c1ccccc1)N1CCC(N2CC[C@@H]3OCc4cnnn4[C@H]3C2)CC1", "% Inhibition": 11, "Z score": -1.48}
{"smiles": "CCOCCNC(=O)C(=O)Nc1ccc(C(F)(F)F)cc1Cl", "% Inhibition": 1, "Z score": -0.12}
{"smiles": "Cc1nn(C)c(C)c1CCN/C(=N\\c1cccc(F)c1)NC(=O)c1ccc(C(F)(F)F)cc1", "% Inhibition": 2, "Z score": -0.37}
{"smiles": "C[C@H]1CN(Cc2cn(C(C)(C)C)nn2)CCN1c1nc2ccccc2o1", "% Inhibition": -5, "Z score": 0.45}
{"smiles": "Cn1ncc(NC(=O)Cc2cccc(F)c2)c(N2CCOCC2)c1=O", "% Inhibition": -27, "Z score": 5.08}
{"smiles": "Cc1cnccc1CC(=O)NC[C@H](C)Oc1ccc(Cl)cc1", "% Inhibition": -6, "Z score": 0.74}
{"smiles": "C[C@H](NC(=O)C1=CCCCO1)c1ccccc1N1CCOCC1", "% Inhibition": 1, "Z score": -0.12}
{"smiles": "COCCn1nnn(-c2ccc(NC(=O)NC3CCCCC3)cc2)c1=O", "% Inhibition": -15, "Z score": 2.91}
{"smiles": "Cc1cccc(NC(=O)Cn2nnn(C3CC3)c2=O)c1", "% Inhibition": 11, "Z score": -1.42}
{"smiles": "O=C(c1occ2c1CCC2)N1CC(Oc2nccs2)C1", "% Inhibition": -13, "Z score": 1.67}
{"smiles": "Cc1ccc(NC(=O)Nc2ccn(Cc3ccncc3)n2)c(C)n1", "% Inhibition": -37, "Z score": 4.37}
{"smiles": "CCN1CC[C@@]2(CCC1=O)CN(CCn1cc(Cl)cn1)CCN2C", "% Inhibition": 2, "Z score": -0.27}
{"smiles": "CN(CCCn1cccn1)CCc1ccncc1", "% Inhibition": -4, "Z score": 0.6}
{"smiles": "O=S(=O)(Cc1ccncc1)Cc1cccc(OC(F)F)c1", "% Inhibition": -8, "Z score": 1.27}
{"smiles": "NC(=O)[C@@H]1CCCN1CCCNC(=O)N1CCC2(CCCCC2)C1", "% Inhibition": -6, "Z score": 0.82}
{"smiles": "c1nc(-c2noc([C@H]3CCCc4[nH]nnc43)n2)co1", "% Inhibition": 0, "Z score": -0.04}
{"smiles": "CN(C(=O)N[C@H](c1cc2ccccc2o1)C1CC1)C1CC1", "% Inhibition": 14, "Z score": -2.18}
{"smiles": "c1ccc(CCCN2CC[C@H]3[C@H](CCCN3Cc3cccn3-c3nccs3)C2)cc1", "% Inhibition": -8, "Z score": 1.55}
{"smiles": "Cc1cnc(CN2CCC(C(=O)NCc3ccccc3)CC2)cn1", "% Inhibition": -8, "Z score": 1.18}
{"smiles": "Fc1ccc(-c2nnc(-c3cnc4onc(-c5ccccc5)c4c3)o2)cc1", "% Inhibition": 14, "Z score": -1.86}
{"smiles": "O=C(O)C1CC2(C1)C[C@@H](NCc1cc(F)cc(Cl)c1)CCO2", "note": "(some centres not stated)", "% Inhibition": -6, "Z score": 1.25}
{"smiles": "O=C(Cn1nc2c(N3CCCCCC3)nccn2c1=O)Nc1ccc(F)cc1", "% Inhibition": 10, "Z score": -1}
{"smiles": "O=C(NCc1ccc(-c2ncon2)cc1)C1CCCCCC1", "% Inhibition": -8, "Z score": 1.75}
{"smiles": "COCC1(CNC(=O)c2c(C)ncnc2C)CC1", "% Inhibition": 8, "Z score": -1.04}
{"smiles": "Cc1nc(CNC(=O)c2cncc(Cl)c2C)ccc1[C@H](C)O", "% Inhibition": -7, "Z score": 0.87}
{"smiles": "O=C1NCCC[C@@H]1Nc1nc(C2CCCC2)ns1", "% Inhibition": -15, "Z score": 2.31}
{"smiles": "CCn1cnnc1C[C@H]1CCN(S(=O)(=O)c2ccc3c(c2)CCC3)C1", "% Inhibition": -4, "Z score": 0.71}
